Laboratory results as given in patent US20260137703A1, “2-AMINO-PYRIDO[2,3-D]PYRIMIDIN-7(8H)-ONE AND 7-AMINO-1-PYRIMIDO[4,5-D]PYRIMIDIN-2(1 H)-ONE DERIVATIVES AS EGFR INHIBITORS FOR THE TREATMENT OF CANCER” (Cancer Research Technology Limited, priority 2022, published 2026).

Target: CtermHisTag-mEGFR Triple Mutant (R797S, L858R, T790M) (Homo sapiens, UniProt P00533, C797S/L858R/T790M)
Assay: TR-FRET probe displacement, EGFR triple mutant
Details: 1.25 nM EGFR, 100 nM probe, 30 mins room temperature

| IC50 [µM] | SMILES |
| --- | --- |
| 0.1 to 1 | C=Cc1cc(=O)n(-c2ccc(OC)cc2OC)c2nc(Nc3ccc(N(C)CCN(C)C)cc3)ncc12 [Example 155, 8-(2,4-dimethoxyphenyl)-2-[(4-{[2-(dimethylamino)ethyl](methyl)amino}phenyl)amino]-5-ethenylpyrido[2,3-d]pyrimidin-7-one] |
| 1 to 50 | C=Cc1cc(=O)n(-c2ccc(OC)cc2)c2nc(Nc3ccccc3OC)ncc12 [Example 157, 8-(4-Methoxyphenyl)-2-((2-methoxyphenyl)amino)-5-vinylpyrido[2,3-d]pyrimidin-7(8H)-one] |
| 0.02 to 0.1 | C=Cc1c(C#N)c(=O)n(-c2ccc(OC)cc2OC)c2nc(Nc3ccccc3OC)ncc12 [Example 160, 8-(2,4-dimethoxyphenyl)-2-((2-methoxyphenyl)amino)-7-oxo-5-vinyl-7,8-dihydropyrido[2,3-d]pyrimidine-6-carbonitrile] |
| 1 to 50 | C=Cc1c(-c2ccccc2Cl)c(=O)n(C)c2nc(Nc3ccccc3OC)ncc12 [Example 161, 6-(2-chlorophenyl)-5-ethenyl-2-[(2-methoxyphenyl)amino]-8-methylpyrido[2,3-d]pyrimidin-7-one] |
| 1 to 50 | C=Cc1c(-c2ccccc2)c(=O)n(C)c2nc(Nc3ccccc3OC)ncc12 [Example 162, 5-ethenyl-2-[(2-methoxyphenyl)amino]-8-methyl-6-phenylpyrido[2,3-d]pyrimidin-7-one] |
| 1 to 50 | C=Cc1c(-c2c(Cl)cccc2Cl)c(=O)n(C)c2nc(Nc3ccccc3OC)ncc12 [Example 163, 6-(2,6-dichlorophenyl)-5-ethenyl-2-[(2-methoxyphenyl)amino]-8-methylpyrido[2,3-]pyrimidin-7-one] |
| 0.1 to 1 | C=Cc1c(-c2c(Cl)cccc2Cl)c(=O)n(C)c2nc(Nc3cccc(CO)c3)ncc12 [Example 164, 6-(2,6-dichlorophenyl)-5-ethenyl-2-{[3-(hydroxymethyl)phenyl]amino}-8-methylpyrido[2,3-d]pyrimidin-7-one] |
| 0.1 to 1 | C=Cc1c(-c2ccccc2Cl)c(=O)n(C)c2nc(Nc3ccc(N(C)CCN(C)C)cc3)ncc12 [Example 165, 6-(2-chlorophenyl)-2-[(4-{[2-(dimethylamino)ethyl](methyl)amino}phenyl)amino]-5-ethenyl-8-methylpyrido[2,3-d]pyrimidin-7-one] |
| 1 to 50 | C=Cc1c(Cc2ccccc2)c(=O)n(C)c2nc(Nc3ccc(N(C)CCN(C)C)cc3)ncc12 [Example 166, 6-benzyl-2-[(4-{[2-(dimethylamino)ethyl](methyl)amino}phenyl)amino]-5-ethenyl-8-methylpyrido[2,3-d]pyrimidin-7-one] |
| 0.1 to 1 | C=Cc1c(-c2c(Cl)cccc2Cl)c(=O)n(C)c2nc(Nc3ccc(N(C)CCN(C)C)cc3)ncc12 [Example 167, 6-(2,6-dichlorophenyl)-2-[(4-{[2-(dimethylamino)ethyl](methyl)amino}phenyl)amino]-5-ethenyl-8-methylpyrido[2,3-d]pyrimidin-7-one] |
| 1 to 50 | C=Cc1c(-c2ccccc2Cl)c(=O)n(C)c2nc(Nc3cccc(OC)c3)ncc12 [Example 168, 6-(2-chlorophenyl)-5-ethenyl-2-[(3-methoxyphenyl)amino]-8-methylpyrido[2,3-d]pyrimidin-7-one] |
| 0.1 to 1 | C=Cc1c(-c2ccccc2Cl)c(=O)n(C)c2nc(Nc3cccc(CO)c3)ncc12 [Example 169, 6-(2-chlorophenyl)-5-ethenyl-2-{[3-(hydroxymethyl)phenyl]amino}-8-methylpyrido[2,3-]pyrimidin-7-one] |
| 0.1 to 1 | C=Cc1c(-c2ccccc2Cl)c(=O)n(C)c2nc(Nc3ccc(N4CCN(C)CC4)cc3OC)ncc12 [Example 170, 6-(2-chlorophenyl)-5-ethenyl-2-{[2-methoxy-4-(4-methylpiperazin-1-yl)phenyl]amino}-8-methylpyrido[2,3-d]pyrimidin-7-one] |
| 0.1 to 1 | C=Cc1c(-c2ccccc2Cl)c(=O)n(C)c2nc(Nc3ccc(OCCN(C)C)cc3)ncc12 [Example 172, 6-(2-chlorophenyl)-2-({4-[2-(dimethylamino)ethoxy]phenyl}amino)-5-ethenyl-8-methylpyrido[2,3-d]pyrimidin-7-one] |
| 1 to 50 | C=Cc1c(-c2ccccc2Cl)c(=O)n(C)c2nc(N)ncc12 [Example 173, 2-amino-6-(2-chlorophenyl)-5-ethenyl-8-methylpyrido[2,3-d]pyrimidin-7-one] |
| 1 to 50 | C=Cc1c(-c2ccccc2Cl)c(=O)n(C)c2nc(NCCCCN3CCN(C)CC3)ncc12 [Example 174, 6-(2-chlorophenyl)-8-methyl-2-((4-(4-methylpiperazin-1-yl)butyl)amino)-5-vinylpyrido[2,3-d]pyrimidin-7(8H)-one] |

More lines, now with the values behind:

| SMILES | IC50 [µM] |
| --- | --- |
| C=Cc1cc(=O)n(-c2cccc(OC)c2)c2nc(Nc3ccccc3OC)ncc12 [Example 156, 8-(3-Methoxyphenyl)-2-((2-methoxyphenyl)amino)-5-vinylpyrido[2,3-d]pyrimidin-7(8H)-one] | 1 to 50 |
| C=Cc1c(C#N)c(=O)n(-c2ccccc2)c2nc(Nc3ccccc3OC)ncc12 [Example 159, 5-ethenyl-2-[(2-methoxyphenyl)amino]-7-oxo-8-phenylpyrido[2,3-d]pyrimidine-6-carbonitrile] | 0.02 to 0.1 |
| C#Cc1c(C)c(=O)n(Cc2cnoc2)c2nc(Nc3ccc(N4CCN(C)CC4)cc3)ncc12 [Example 175, 5-Ethynyl-6-methyl-2-{[4-(4-methylpiperazin-1-yl)phenyl]aminol}-8-(1,2-oxazol-4-ylmethyl)pyrido[2,3-d]pyrimidin-7-one] | 0.1 to 1 |
| C#Cc1c(C)c(=O)n(Cc2cnco2)c2nc(Nc3ccc(N4CCN(C)CC4)cc3)ncc12 [Example 176, 5-Ethynyl-6-methvl-2-{[4-(4-methylpiperazin-1-yl)phenyl]aminol}-8-(1,3-oxazol-5-ylmethyl)pyrido[2,3-d]pyrimidin-7-one] | 0.1 to 1 |
| C#Cc1c(C)c(=O)n(Cc2ncc[nH]2)c2nc(Nc3ccc(N4CCN(C)CC4)cc3)ncc12 [Example 177, 5-Ethynyl-8-(1H-imidazol-2-ylmethyl)-6-methyl-2-{[4-(4-methylpiperazin-1-yl)phenyl]amino}pyrido[2,3-d]pyrimidin-7-one] | 0.1 to 1 |
| C#Cc1c(C)c(=O)n(Cc2ccccn2)c2nc(Nc3ccc(N4CCN(C)CC4)cc3)ncc12 [Example 178, 5-Ethynyl-6-methyl-2-{[4-(4-methylpiperazin-1-yl)phenyl]amino}-8-(pyridin-2-ylmethyl)pyrido[2,3-d]pyrimidin-7-one] | 0.02 to 0.1 |
| C#Cc1c(C)c(=O)n(Cc2ccncc2)c2nc(Nc3ccc(N4CCN(C)CC4)cc3)ncc12 [Example 179, 5-Ethynyl-6-methyl-2-{[4-(4-methylpiperazin-1-yl)phenyl]amino}-8-(pyridin-4-ylmethyl)pyrido[2,3-d]pyrimidin-7-one] | 0.02 to 0.1 |
| C#Cc1c(C)c(=O)n(Cc2cnn(C)c2)c2nc(Nc3ccc(N4CCN(C)CC4)cc3)ncc12 [Example 180, 5-Ethynyl-6-methyl-2-{[4-(4-methylpiperazin-1-yl)phenyl]aminol}-8-[(1-methylpyrazol-4-yl)methyl]pyrido[2,3-d]pyrimidin-7-one] | 0.1 to 1 |
| C#Cc1cc(=O)n(C2CCCC2)c2nc(Nc3cccc(CN4CC(CS(C)(=O)=O)C4)c3)ncc12 [Example 181] | 0.1 to 1 |
| C#Cc1cc(=O)n(C2CCCC2)c2nc(Nc3cccc(CN4CCC(CS(C)(=O)=O)C4)c3)ncc12 (stereo not drawn) [Example 182] | 0.1 to 1 |
| C#Cc1cc(=O)n(C2CCCC2)c2nc(Nc3cccc(CN4CCC(CS(C)(=O)=O)CC4)c3)ncc12 [Example 183] | 0.1 to 1 |
